Test results published in PubChem BioAssay AID720709 (National Center for Advancing Translational Sciences (NCATS), 2013).
About 520 (0.14%) of roughly 360,000 compounds were called active. The shares of active, inactive and inconclusive entries below differ from those in the screen. The call rests on the fitted dose curve; in most records, active means well fitted inhibition curve with a large enough effect; inconclusive means small, poorly fitted or top-dose-only effect; inactive means no such curve, though single readings can be large or run the other way. Where the call is inconclusive, the potency comes from a doubtful curve fit.

The compounds below were run against Rap guanine nucleotide exchange factor 3 (Homo sapiens) (UniProt O95398) (assay: qHTS for Antagonist of cAMP-regulated guanine nucleotide exchange factor 3 (EPAC1): primary screen). Conditions: EPAC1 GEF assay, Rap1b-BODIPY-GDP exchange fluorescence; activity change, negative = inhibition: at 115 µM (top of the series).
Further: nearly all actives have a fitted effect of over 50% in size.
Potency means the concentration at half of the fitted maximal effect; tags describe the fitted curve by direction and shape.
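Wherever activity change, negative = inhibition is given: plate controls were vehicle for no effect and positive control for full effect.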

UniProt O95398, sequence (O95398 whole entry, looked up): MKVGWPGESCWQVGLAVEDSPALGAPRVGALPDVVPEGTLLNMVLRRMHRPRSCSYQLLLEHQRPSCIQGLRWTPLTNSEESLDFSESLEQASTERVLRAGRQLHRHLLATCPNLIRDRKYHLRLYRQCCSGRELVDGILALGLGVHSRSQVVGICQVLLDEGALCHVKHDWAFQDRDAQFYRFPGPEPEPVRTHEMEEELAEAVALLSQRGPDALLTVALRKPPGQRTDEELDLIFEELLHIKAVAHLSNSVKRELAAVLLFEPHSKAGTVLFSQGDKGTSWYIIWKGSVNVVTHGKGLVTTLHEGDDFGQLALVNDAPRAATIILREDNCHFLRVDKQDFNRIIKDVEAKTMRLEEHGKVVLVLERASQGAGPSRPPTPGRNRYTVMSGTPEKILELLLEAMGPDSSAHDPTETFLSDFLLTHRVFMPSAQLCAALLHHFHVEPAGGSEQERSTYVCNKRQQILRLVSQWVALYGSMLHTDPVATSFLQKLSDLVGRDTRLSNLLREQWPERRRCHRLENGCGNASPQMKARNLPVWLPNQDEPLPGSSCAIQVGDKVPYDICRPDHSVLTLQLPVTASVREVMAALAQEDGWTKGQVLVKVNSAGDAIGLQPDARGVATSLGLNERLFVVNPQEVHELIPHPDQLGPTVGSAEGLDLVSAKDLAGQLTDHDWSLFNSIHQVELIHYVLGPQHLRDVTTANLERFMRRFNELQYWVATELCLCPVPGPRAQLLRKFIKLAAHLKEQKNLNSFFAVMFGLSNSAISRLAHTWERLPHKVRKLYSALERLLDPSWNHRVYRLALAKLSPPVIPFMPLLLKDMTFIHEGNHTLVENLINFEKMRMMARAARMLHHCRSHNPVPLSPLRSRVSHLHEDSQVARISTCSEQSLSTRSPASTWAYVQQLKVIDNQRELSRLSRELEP

Potency, inconclusive:
Cc1ccc(S(=O)(=O)N2C[C@H]3n4c(=O)ccc(=O)n4C[C@H](OC(=O)Nc4cccs4)[C@@]3(O)C2)cc1 56.2 µM [inhibitor, partial curve], Cc1nccc(-c2ccc(-n3c(C)ccc3C)cc2)n1 2.82 µM [inhibitor, full curve, poor fit], O=C(NCc1ccc(Cl)cc1)N1CCN(Cc2ccccc2)CC1 89.1 µM [inhibitor, single point], CN1C(=O)N(c2ccc(Cl)cc2)C(C)(O)CC1(C)C (stereo not drawn) 28.2 µM [inhibitor, single point], Nc1cc(N)cc(C(=O)c2ccccc2)c1 89.1 µM [inhibitor, single point], COc1ccc(/C(C)=N/NC(=O)CNC(=O)C(c2ccccc2)c2ccccc2)c(OC)c1 100 µM [inhibitor, partial curve, poor fit], CCN(CC)S(=O)(=O)c1cccc(-c2n[nH]c(=S)n2C(C)COC)c1 (stereo not drawn) 50.1 µM [inhibitor, partial curve], CCOc1ccc(C2CC(c3cccc(OC)c3)n3nc(N)nc3N2)cc1 (stereo not drawn) 39.8 µM [inhibitor, partial curve], CC(=O)c1cccc(NS(=O)(=O)c2ccc(-c3cc(C)no3)s2)c1 89.1 µM [inhibitor, single point], O=C1CN(C(=O)COC(=O)c2ccc([N+](=O)[O-])s2)c2ccccc2N1 25.1 µM [inhibitor, full curve], COc1ccc(NC(=O)C2=CC(c3ccc(OC)cc3)=NS(=O)(=O)N2C)cc1 39.8 µM [inhibitor, full curve, poor fit], Cc1cc(C(=O)CCl)c(C)n1CCc1ccc(Cl)cc1 39.8 µM [inhibitor, partial curve], OC1CCN(Cc2cccc3ccccc23)CC1 79.4 µM [inhibitor, single point], CC(C)(C)OC(=O)N1CCC(c2cc(=O)n3[nH]cc(C(=O)NC4CCCC4)c3n2)CC1 56.2 µM [inhibitor, partial curve], O=C(O)COc1ccc(/C=C/C(=O)c2ccc(C3CCCCC3)cc2)cc1 14.1 µM [inhibitor, full curve], Cn1c(=O)c2c(nc(Br)n2CCSc2ncccn2)n(C)c1=O 100 µM [inhibitor, single point], COc1ccc2cc(C#N)c(N3CCOCC3)nc2c1 44.7 µM [inhibitor, partial curve], CCOC(=O)C1=C(N)Oc2cc(O)ccc2C1c1ccc(C)cc1 (stereo not drawn) 31.6 µM [inhibitor, full curve], Cc1cc(C)cc(NC(=O)CCc2c(C)nn(-c3ccc(N4CCOCC4)nn3)c2C)c1 8.91 µM [inhibitor, full curve, poor fit], O=[N+]([O-])c1ccc(N=Nc2ncc[nH]2)cc1 22.4 µM [inhibitor, partial curve], CCn1c(=NC(=O)c2ccco2)sc2cccc(F)c21 89.1 µM [inhibitor, single point], O=S(=O)(NCCNc1nccc(C(F)(F)F)n1)c1ccccc1 100 µM [inhibitor, single point], COCCn1cnnc1SCC(=O)Nc1sc2c(c1C#N)CCC2 50.1 µM [inhibitor, partial curve], CSc1nnc(NC(=O)c2nc(S(=O)(=O)Cc3cccc(C)c3)ncc2Cl)s1 100 µM [inhibitor, partial curve], O=S(=O)(c1ccc(NCCCO)nc1)N1CCOCC1 100 µM [inhibitor, single point], O=C(O)CCCC(=O)N1N=C(c2ccco2)CC1c1ccco1 (stereo not drawn) 56.2 µM [inhibitor, single point], O=C1C(Cl)=C(Nc2ccccc2O)C(=O)N1CCc1ccccc1 50.1 µM [inhibitor, partial curve], CC(C)=CC(=O)OCC(=O)Nc1ccc(Cl)cn1 89.1 µM [inhibitor, single point], CCOc1ccc(NC(=O)CCSc2ccc3ccccc3n2)cc1 31.6 µM [inhibitor, single point], Cc1cccc(NC(=O)N2CCC(NC(=O)c3ccco3)CC2)c1 89.1 µM [inhibitor, single point], COc1ccc(NC(=O)c2ccc(COc3ccccc3)o2)c(OC)c1 100 µM [inhibitor, partial curve, poor fit], CCn1c(SCC(=O)Nc2cc(C(C)(C)C)nn2-c2ccccc2)nnc1-c1cccs1 100 µM [inhibitor, single point]

Potency, active:
O=c1ccc2c(-c3ccccc3S(=O)(=O)O)c3ccc(O)c(O)c3oc-2c1O 56.2 µM

Activity change, negative = inhibition, inactive:
CCOC(=O)c1cc(-c2ccc(OC)cc2)nn1-c1ccccc1C(=O)O -5.1%, Cc1ccc(/C=N/NC(=O)c2nnn(-c3nonc3N)c2-c2ccc3c(c2)OCO3)s1 16.4%, N#C/C(=C/c1ccc(N2CCCCCC2)o1)c1ccc(Cl)cc1 6.38%, Cc1ccc(C)c(S(=O)(=O)N2CCN(C(=O)[C@H](Cc3ccccc3)NC(=O)c3ccco3)CC2)c1 9.91%, COc1cccc(Cn2c(C(C)n3c(-c4cnccn4)nc4ccccc43)nc3ccccc32)c1 (stereo not drawn) -9.7%, CC(C)N1CCc2c(sc(NC(=O)c3ccc4ccccc4c3)c2C(N)=O)C1 20.4%, CCOC(=O)c1cnc(-n2nc(C)cc2C)nc1N(CC)CC 4.26%, COCC(=O)Nc1nnc(COc2ccc(Cl)cc2)s1 -11.2%

Activity change, negative = inhibition, inconclusive:
Cc1[nH]nc2c1C(c1ccsc1)C1=C(CC(C)(C)CC1=O)N2 (stereo not drawn) -17.4% [inhibitor], Cc1cccc(C)c1NC(=O)C1(C)CN(S(C)(=O)=O)CC(=O)N1CC(F)(F)F (stereo not drawn) -18.9% [inhibitor]
